According to article PMC4336329 (PLoS ONE, 2015):
In all, about 310,000 compounds went through this assay and about 2,200 (0.71%) showed an effect of 50% or more. Effects have a minus sign here. The list shows a part of the results.

Each compound was assayed against human ether-à-go-go-related gene (hERG) potassium channel (human, UniProt Q12809) (assay: primary screen, population patch clamp on CHO cells stably expressing hERG).
human ether-à-go-go-related gene (hERG) potassium channel, sequence (Q12809 whole entry, looked up): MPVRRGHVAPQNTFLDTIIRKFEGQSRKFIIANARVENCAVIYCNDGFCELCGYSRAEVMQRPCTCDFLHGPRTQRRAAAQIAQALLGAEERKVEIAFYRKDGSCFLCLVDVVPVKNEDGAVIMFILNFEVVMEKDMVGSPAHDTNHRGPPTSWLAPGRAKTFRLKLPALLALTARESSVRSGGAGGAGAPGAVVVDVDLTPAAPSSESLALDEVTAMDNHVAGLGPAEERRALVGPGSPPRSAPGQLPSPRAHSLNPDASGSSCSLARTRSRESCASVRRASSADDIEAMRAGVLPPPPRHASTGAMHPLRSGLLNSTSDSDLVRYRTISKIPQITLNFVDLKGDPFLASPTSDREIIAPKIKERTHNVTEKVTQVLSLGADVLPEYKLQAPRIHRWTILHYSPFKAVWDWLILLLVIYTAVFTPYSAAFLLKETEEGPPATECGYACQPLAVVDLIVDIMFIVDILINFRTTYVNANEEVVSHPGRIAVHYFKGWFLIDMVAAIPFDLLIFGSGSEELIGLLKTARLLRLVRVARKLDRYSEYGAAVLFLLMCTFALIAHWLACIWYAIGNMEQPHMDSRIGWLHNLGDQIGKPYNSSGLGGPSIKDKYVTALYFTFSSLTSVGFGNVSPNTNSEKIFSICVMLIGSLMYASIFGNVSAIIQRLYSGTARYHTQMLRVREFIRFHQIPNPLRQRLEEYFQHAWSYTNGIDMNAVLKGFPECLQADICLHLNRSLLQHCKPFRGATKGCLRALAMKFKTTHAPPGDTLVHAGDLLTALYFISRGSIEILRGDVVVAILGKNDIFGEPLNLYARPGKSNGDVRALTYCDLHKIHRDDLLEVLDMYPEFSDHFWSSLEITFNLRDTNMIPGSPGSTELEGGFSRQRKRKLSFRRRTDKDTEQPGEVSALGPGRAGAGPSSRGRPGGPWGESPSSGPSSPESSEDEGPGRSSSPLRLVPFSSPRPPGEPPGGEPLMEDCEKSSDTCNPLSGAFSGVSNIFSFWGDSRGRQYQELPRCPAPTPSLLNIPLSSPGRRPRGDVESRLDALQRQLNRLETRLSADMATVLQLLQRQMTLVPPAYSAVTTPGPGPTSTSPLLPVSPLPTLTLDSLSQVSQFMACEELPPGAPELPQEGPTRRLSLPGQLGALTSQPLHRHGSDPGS

Going from `CCn1c(SCC(=O)N2CC(C)OC(C)C2)nc2c([nH]c3ccccc32)c1=O` (stereo not shown) to `CCc1cc2c(=O)c(-c3nc4ccccc4[nH]3)coc2c(CN2CCCCC2C)c1O` (stereo not shown), the “hERG current change (%, negative = inhibition) at 1uM” value falls from 11.4% to 6.79%.

First: O=C(CC[NH+]1CCCCC1)c1ccccc1.[Cl-]
Second: O=C(NCCc1ccccc1)C1CC(=O)N(C2CCCCC2)C1 (stereo not shown)
The “hERG current change (%, negative = inhibition) at 1uM” value of the first is lower: 1.28% for the first, 14.8% for the second.

Going from `COc1ccc(CCCc2n[nH]c(=S)n2C)cc1C` to `COc1cc(NC(C)CCc2ccccc2)cc(OC)c1OC` (stereo not shown), the “hERG current change (%, negative = inhibition) at 1uM” value rises from 11.8% to 18%.

Compared with `CCc1noc(C)c1C(=O)N(C)CC(=O)Nc1ccc(Cl)c(Cl)c1`, `CN(CC(=O)Nc1ccc(Cl)cc1)C(=O)c1cccc(S(=O)(=O)N2CCN(Cc3ccccc3)CC2)c1` is higher in “hERG current change (%, negative = inhibition) at 1uM” value: 9.03% for the first, 12.9% for the second.

First: Cc1cc(C(=O)COc2ccccc2[N+](=O)[O-])c(C)n1-c1cccc(S(=O)(=O)N2CCOCC2)c1
Second: Cc1oc(S(=O)(=O)N2CCOCC2)cc1C(=O)Nc1ccc(F)cc1
The “hERG current change (%, negative = inhibition) at 1uM” value of the first is higher: 2.81% for the first, -0.562% for the second.

Compared with `Cc1ccc(N(C)S(=O)(=O)c2cc(-c3cnc(C4CC4)o3)ccc2C)cc1`, `Cc1ccc(NC(=O)CNc2ccc(OC(C)C)cc2)cc1` is lower in “hERG current change (%, negative = inhibition) at 1uM” value: 12.9% for the first, 12.5% for the second.

Compared with `CCOc1cc(/C=C2/C(=O)ON=C2C)ccc1OCc1ccccc1F`, `COC(=O)C[C@H]1c2cc(F)ccc2S(=O)(=O)N1Cc1ccccc1OC` is lower in “hERG current change (%, negative = inhibition) at 1uM” value: 16.4% for the first, 10.4% for the second.

Compared with `O=C(O)c1ccccc1-c1ccccc1C(=O)Nc1nc2ccccc2s1`, `Cc1ccc(S(=O)(=O)NCCC(c2ccccc2)c2ccccc2)cc1C(=O)O` is lower in “hERG current change (%, negative = inhibition) at 1uM” value: 14.9% for the first, 7.67% for the second.

Compared with `Cc1ccc(S(=O)(=O)N2CCCCC2CCNC(=O)C(=O)NCCc2ccco2)cc1` (stereo not shown), `O=C(CN(CC1CCCO1)C(=O)CNS(=O)(=O)c1ccccc1)NCCc1ccccc1` (stereo not shown) is higher in “hERG current change (%, negative = inhibition) at 1uM” value: 10.5% for the first, 14.7% for the second.

Compared with `Cc1ccc(CNC(=O)C23CN(Cc4ccccc4)CC2C(c2ccc([N+](=O)[O-])cc2)=NO3)cc1` (stereo not shown), `COc1ccc(C2C(C(=O)N3CCN(c4ccccc4)CC3)c3ccccc3C(=O)N2C)cc1` (stereo not shown) is higher in “hERG current change (%, negative = inhibition) at 1uM” value: -12.1% for the first, -1.14% for the second.

Going from `CCOc1ccccc1NC(=S)N1CCN(c2ccc(OC)cc2)CC1` to `CCOc1ccc(NC(=S)NCCCN2CCOCC2)cc1`, the “hERG current change (%, negative = inhibition) at 1uM” value falls from 14.9% to 9%.

Compared with `Cc1coc2cc3oc(=O)c(CC(=O)N4C[C@H]5C[C@@H](C4)c4cccc(=O)n4C5)c(C)c3cc12`, `Cn1c(=O)cc(OCCCC(=O)N2CCC3(CC2)OCCO3)c2ccccc21` is higher in “hERG current change (%, negative = inhibition) at 1uM” value: 4% for the first, 11% for the second.

Compared with `CC(C)Nc1nnc(SCC(=O)c2c[nH]c3ccccc23)s1`, `CCC(=O)OCn1nnc2ccccc2c1=O` is higher in “hERG current change (%, negative = inhibition) at 1uM” value: 8.65% for the first, 16.2% for the second.

Going from `Cc1cc(NC(=O)CSc2ncn(-c3ccccc3)n2)no1` to `Cc1cc(NC(=O)COc2ccc3oc4ccccc4c3c2)no1`, the “hERG current change (%, negative = inhibition) at 1uM” value falls from 13% to 2.56%.

First: O=C(CSc1nnc(-c2cccc(S(=O)(=O)N3CCCCC3)c2)o1)NCCC1=CCCCC1
Second: COc1ccccc1-c1nnc(SCC(=O)N2CCCC2)o1
The “hERG current change (%, negative = inhibition) at 1uM” value of the first is higher: 10.7% for the first, 9.34% for the second.

Going from `CCCNC(=O)CCn1c(-c2ccc(C)cc2)cc(C(=O)OCC)c1C` to `COCCNC(=O)C(c1ccc(C)cc1)N(C(=O)CCC(=O)Nc1ccccn1)c1ccc(F)cc1` (stereo not shown), the “hERG current change (%, negative = inhibition) at 1uM” value rises from 1.63% to 4.28%.

Going from `COCCn1c(SCC(=O)NCc2ccc3c(c2)OCO3)nnc1C(C)C` to `CC(C)c1cc(CNC(=O)CCc2nnc(CCCc3ccccc3)o2)on1`, the “hERG current change (%, negative = inhibition) at 1uM” value falls from 15.9% to 9.8%.

Going from `C=CCn1c(-c2ccccc2)nc(=S)c2c1CCCC2` to `Cc1cccc2cc(C#N)c(N3CCCC3)nc12`, the “hERG current change (%, negative = inhibition) at 1uM” value falls from 13.6% to 13.2%.

First: O=C(OCc1cc(Cl)ccc1OC(F)F)c1ccc([N+](=O)[O-])o1
Second: O=C(Nc1cccc(Cl)c1)c1ccc(F)c(S(=O)(=O)NCc2ccc3c(c2)OCO3)c1
The “hERG current change (%, negative = inhibition) at 1uM” value of the first is higher: 19.8% for the first, 10.5% for the second.

Compared with `O=C(c1cc2nc(C3CC3)cc(C(F)F)n2n1)N1CCOCC1`, `O=C(CN1C(=O)C(=O)N(C2CCCC2)C1=O)Nc1ccc(N2CCOCC2)cc1` is lower in “hERG current change (%, negative = inhibition) at 1uM” value: 10.9% for the first, 7.71% for the second.

First: O=C(c1ccc(F)cc1)C1CCN(C(=O)c2c(F)cccc2F)CC1
Second: Cc1cccc(C2c3[nH]c4ccccc4c3CCN2C(=O)c2ccc(=O)[nH]c2)n1 (stereo not shown)
The “hERG current change (%, negative = inhibition) at 1uM” value of the first is lower: 10.9% for the first, 23.7% for the second.

Compared with `Cc1cccc(OCC(O)CNC(=O)c2ccccc2C(=O)O)c1` (stereo not shown), `CCOc1ncccc1C(=O)OCC(=O)Nc1ccc(C(N)=O)cc1` is higher in “hERG current change (%, negative = inhibition) at 1uM” value: 5.52% for the first, 15.9% for the second.

First: Cc1ccc(-c2nc3ccccc3[nH]2)cc1NC(=O)/C=C/c1ccco1
Second: O=C(NNC1CC(=O)N(c2ccc(Br)cc2)C1=O)c1ccccn1 (stereo not shown)
The “hERG current change (%, negative = inhibition) at 1uM” value of the first is higher: 9.04% for the first, 7.26% for the second.

First: COc1cc2c(cc1OC)C(c1ccc(OC)c(OC)c1OC)CC(=O)N2 (stereo not shown)
Second: COc1ccc(Oc2ccc(N/C=C3/CCCC3=O)cc2)cc1
The “hERG current change (%, negative = inhibition) at 1uM” value of the first is higher: 17.3% for the first, 0.127% for the second.

Going from `O=c1[nH]c(=S)[nH]c2c1C(c1cc([N+](=O)[O-])c(N3CCOCC3)cc1N1CCOCC1)O2` (stereo not shown) to `CCOC(=O)N1CCC(NC(=O)C2CCC(Cn3c(=O)[nH]c4ccccc4c3=O)CC2)CC1` (stereo not shown), the “hERG current change (%, negative = inhibition) at 1uM” value falls from 13.9% to 1.61%.

Going from `CCCN(CCC)CC(C)(C)NS(=O)(=O)c1ccc(Cl)cc1` to `Cc1cc(C(=O)N2CCCC(CNS(=O)(=O)c3cccs3)C2)nn1C` (stereo not shown), the “hERG current change (%, negative = inhibition) at 1uM” value falls from 3.59% to 2.28%.

Compared with `Cc1cc(C)n2nc(CC(=O)NC3CCCCCC3)nc2n1`, `CCc1ccn2cc(-c3ccc4c(c3)OCO4)nc2c1` is lower in “hERG current change (%, negative = inhibition) at 1uM” value: 11.5% for the first, 9.29% for the second.

`N#CCC(=O)Nc1ccc(C(=O)OCC(=O)N(Cc2ccccc2)C2CCS(=O)(=O)C2)cc1` (stereo not shown) was tested, and the “hERG current change (%, negative = inhibition) at 1uM” value was 16%.
